# In all, about 350,000 compounds went through this assay and about 990 (0.28%) were called active. The inconclusive results got no clear call from the source; some entries with a clear call stand among them for comparison. Calls follow the shape of the dose curve; as a rule, active = well fitted inhibition curve with a large enough effect; inconclusive = small, poorly fitted or top-dose-only effect; inactive = no such curve, though single readings can be large or run the other way. A potency beside an inconclusive call is a rough fit, not a confirmed value.
# Target: Tyrosyl-DNA phosphodiesterase 1 (Homo sapiens) (UniProt Q9NUW8)
# Experiment: qHTS Assay for Inhibitors of Tyrosyl-DNA Phosphodiesterase (TDP1); also: nearly all actives have a fitted effect of over 40% in size
# Conditions: recombinant TDP1, AlphaScreen DNA substrate cleavage; activity change, negative = inhibition: at 130 µM (top of the series) unless noted
# In short: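 Steps: enzyme plus compound, 15 min RT; add biotin/phosphotyrosine-FITC oligonucleotide (15 nM final), react 5 min; add donor/acceptor beads (10 ug/ml final), 10 min; read AlphaScreen. Tdp1 at 1 nM final.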
# % is scaled to controls: 0 for no effect and ±100 for the full control effect; potency is read from the fitted curve at half-maximal effect; tags tell the direction and shape of the fitted curve.
# UniProt Q9NUW8, sequence (Q9NUW8 whole entry, looked up): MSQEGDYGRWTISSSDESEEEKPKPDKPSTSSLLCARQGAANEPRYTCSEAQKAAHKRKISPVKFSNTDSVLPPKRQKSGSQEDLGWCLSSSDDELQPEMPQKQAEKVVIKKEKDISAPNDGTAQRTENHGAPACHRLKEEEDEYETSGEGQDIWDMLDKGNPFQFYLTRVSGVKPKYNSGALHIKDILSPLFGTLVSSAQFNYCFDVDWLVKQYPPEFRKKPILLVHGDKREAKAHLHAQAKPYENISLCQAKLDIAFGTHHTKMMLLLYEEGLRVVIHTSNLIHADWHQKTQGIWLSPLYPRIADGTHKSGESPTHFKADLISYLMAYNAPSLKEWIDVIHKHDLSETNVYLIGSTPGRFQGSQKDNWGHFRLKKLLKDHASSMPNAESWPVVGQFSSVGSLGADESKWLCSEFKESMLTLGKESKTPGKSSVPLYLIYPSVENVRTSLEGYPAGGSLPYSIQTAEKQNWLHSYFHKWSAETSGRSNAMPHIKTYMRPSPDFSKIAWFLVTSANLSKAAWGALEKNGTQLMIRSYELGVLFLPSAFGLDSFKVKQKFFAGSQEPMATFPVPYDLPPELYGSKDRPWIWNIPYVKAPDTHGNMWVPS
Structure (SMILES),Potency,"activity change, negative = inhibition"
CN(CCO)c1nc(-c2cccs2)nc2ccccc12,"inconclusive: 28.2 µM [inhibitor, full curve, poor fit]",
COCCn1c(CNC(=O)c2cc([N+](=O)[O-])ccc2Cl)nc2cccnc21,inactive,
C=CCNCC#CCOc1ccc(OC)cc1,inactive,
Cc1cccc(OCC(=O)OC(C)CN2CCCCC2)c1 (stereo not given),active: 35.5 µM,
COc1ccc(CNC(=O)COC(=O)c2ccc(S(=O)(=O)NCc3ccco3)cc2)cc1,active: 17.8 µM,
O=C(Cc1ccccc1C(=O)O)Nc1cccc2ccccc12,inactive,
COc1ccc(C(=O)Nc2nnc(-c3ccco3)s2)cc1,"inconclusive: 3.98 µM [inhibitor, partial curve]",
O=C(O)c1cc(-c2ccco2)nn1-c1ccc(Cl)cc1,active: 14.1 µM,
CC(=O)Nc1ccc2nc3c(=O)[nH]c(=O)[nH]c3nc2c1,"inconclusive: 2.82 µM [inhibitor, full curve]",
COc1cccc(-c2nc(-c3ccccc3)no2)c1,"inconclusive: 22.4 µM [inhibitor, single point]",
COc1ccccc1N(CC(=O)NCc1ccc(F)cc1)C(=O)CCC(=O)Nc1nccs1,"inconclusive: 0.447 µM [inhibitor, full curve, poor fit]",
Cc1cc(C(F)(F)F)nn1-c1nc(-c2ccccc2)cc(C(F)(F)F)n1,inactive,
Nc1ccc(-c2nc3ccc(C(=O)O)cc3s2)cc1,active: 79.4 µM,
CCC(=O)c1ccc2c(c1)OCCO2,inactive,
CCOc1ccc(NC(=O)c2ccc3c(c2)nnn3C2CCCC2)cc1,inactive,
CCOC(=O)c1ccccc1NC(=O)CN1C(=O)CCS(=O)(=O)c2ccccc21,inactive,
COc1cc(C2NC(=O)C(C#N)=C(S)N2c2ccc(C)cc2)ccc1OC(C)C (stereo not given),"inconclusive: 100 µM [inhibitor, partial curve]",
CCN(CC)CCOC(=O)C1(C2CCCCC2)CCCCC1,"inconclusive: 0.02 µM [inhibitor, full curve, poor fit]",
CCCCCCCCCCCCCCCC(=O)OCC(O)C1OC(=O)C(O)=C1O (stereo not given),"inconclusive: 3.55 µM [inhibitor, single point]",
COCCN(C(=O)c1c(C)noc1C)c1c(N)n(CC(C)C)c(=O)[nH]c1=O,"inconclusive: 56.2 µM [inhibitor, partial curve]",
Cc1csc2cc(-c3cccc([N+](=O)[O-])c3)c(-c3cccc([N+](=O)[O-])c3)c[n+]12,inactive,
Cc1nc2ccc(Oc3ccccc3)cc2s1,"inconclusive: 56.2 µM [inhibitor, partial curve]",
OCC1(Cc2ccc(Cl)cc2)CCN(CCCc2ccccc2)CC1,inactive,
Cc1ccc(OCC(=O)NNC(=O)Cn2c(=O)cnc3ccccc32)cc1,"inconclusive: 56.2 µM [inhibitor, partial curve]",
N#CCc1c(C#N)c(N)nc(N2CCN(S(=O)(=O)c3ccccc3)CC2)c1C#N,inactive,

Structure (SMILES),Potency,"activity change, negative = inhibition"
Cc1ccc(OCC(=O)NCC2(N3CCOCC3)CCCCC2)cc1C,inactive,
O=C(COC(=O)Cc1ccc(Cl)cc1)NCc1ccco1,active: 11.2 µM,
CC1=C(CCC(=O)O)c2cc3nc(cc4[nH]c(cc5[nH]c(cc1n2)c(C)c5C(C)O)c(C)c4C(C)O)C(C)=C3CCC(=O)O (stereo not given),active: 15.8 µM,
COc1ccc(-c2nc3ccc(NC(=O)COC(C)=O)cc3c(=O)n2Cc2ccccc2)cc1COc1ccc(NC(C)=O)cc1,"inconclusive: 79.4 µM [inhibitor, partial curve]",
COc1ccc(Cl)cc1C(=O)NCCCSc1ccccc1,inactive,
O=c1c(C(c2c(O)nc3n(c2=O)CCS3)c2cccc3ccccc23)c(O)nc2n1CCS2,"inconclusive: 28.2 µM [inhibitor, partial curve]",
Cc1ccccc1-n1nnnc1SCCCC(=O)c1ccc(F)cc1,"inconclusive: 44.7 µM [inhibitor, single point]",
CCN1CCN(C(=O)c2ccc3c(c2)N(Cc2ccc(Cl)cc2)C(=O)c2ccccc2S3=O)CC1 (stereo not given),inactive,
COc1cccc(CNC(=O)C2Cc3cc(S(=O)(=O)N4CCCC4)ccc3N2C(C)=O)c1OC (stereo not given),inactive,
CCOc1cc(/C=N/N=C2/NC(=O)C(CC(=O)O)S2)ccc1OCc1ccc(Cl)cc1Cl (stereo not given),active: 20 µM,
CCCCOc1ccccc1C1C(C(=O)OC)=CN(CC)C=C1C(=O)OC,"inconclusive: 15.8 µM [inhibitor, full curve, poor fit]",
COc1ccccc1CCNC(=O)C(=O)NCC(c1ccc2c(c1)OCO2)N1CCOCC1 (stereo not given),inactive,
CC(=O)Nc1cc(NC(C)=O)cc(C(=O)OCC(=O)N(c2ccccc2)C2CCS(=O)(=O)C2)c1 (stereo not given),active: 44.7 µM,
C/C(N)=C(/C#N)C(=O)CSc1nc2ccccc2[nH]1,"inconclusive: 3.55 µM [inhibitor, full curve]",
O=C1C2C(C(=O)N1/N=C/c1cc([N+](=O)[O-])c(O)cc1O)C1C=CC2C12CC2 (stereo not given),"inconclusive: 35.5 µM [inhibitor, partial curve]",
O=C(O)C1Cc2ccccc2CN1C(=O)c1ccccc1Cl (stereo not given),"inconclusive: 63.1 µM [inhibitor, partial curve]",
COc1cccc(C(=O)CSc2nc3cccnc3n2C)c1,"inconclusive: 17.8 µM [inhibitor, partial curve]",
C=CCSc1nc2sc3c(c2c(=O)n1CC)CCC3,"inconclusive: 50.1 µM [inhibitor, partial curve]",
COC(=O)c1oc2ccccc2c1-n1cccc1,inactive,
Cc1nn(-c2ccccn2)c2c1C(=O)C(Br)CC2 (stereo not given),"inconclusive: 5.01 µM [inhibitor, full curve, poor fit]",
O=c1[nH]c(/C=C\c2ccc(O)c(O)c2)nc(O)c1[N+](=O)[O-],"inconclusive: 20 µM [inhibitor, full curve]",
CCN(CC)Cc1c(O)c(Cl)cc2c(C)cc(=O)oc12,active: 12.6 µM,
CN(C)S(=O)(=O)c1ccc(C(=O)Oc2coc(CSc3ncccn3)cc2=O)cc1,"inconclusive: 39.8 µM [inhibitor, partial curve]",
Cn1c(/C(C#N)=C(\O)c2ccc(Br)s2)nc2ccccc21,"inconclusive: 56.2 µM [inhibitor, partial curve]",
C#CCOc1ccc(C2CC(=O)Nc3c2c(C)nn3-c2nc(C)cc(C)n2)cc1 (stereo not given),"inconclusive: 25.1 µM [inhibitor, single point]",

Structure (SMILES),Potency,"activity change, negative = inhibition"
O=C(CSC(=S)N1CCCC1)c1cc(Br)cc(Br)c1O,inactive,
Cc1cc(C)n(C(=O)CCC2COc3ccccc3O2)n1 (stereo not given),"inconclusive: 20 µM [inhibitor, partial curve, poor fit]",
COc1cccc(/C=N/Nc2ccc(S(=O)(=O)O)cc2)c1O,"inconclusive: 100 µM [inhibitor, single point]",
CC(=O)Nc1ccc(SCC(=O)N(C)CC(=O)Nc2ccccc2Cl)cc1,inactive,
CC(C)(C)N1C(=O)Cc2c1nc(N)c1c(N)nc(N3CCCCC3CO)c(C#N)c21 (stereo not given),inactive,
CC1CN(C)C(C)C/C1=N/Oc1ccccc1[N+](=O)[O-] (stereo not given),"inconclusive: 17.8 µM [inhibitor, full curve]",
O=C(Nc1cccc(Oc2ccc(C(=O)O)c(C(=O)O)c2)c1)c1ccc(-c2ccccc2)cc1,active: 44.7 µM,
Cc1ccc(-c2nnc(-c3cccc(NC(=O)c4cccs4)c3)o2)cc1,"inconclusive: 79.4 µM [inhibitor, partial curve]",
Cc1ccc2cc(C#N)c(N3CCCC3)nc2c1C,"inconclusive: 11.2 µM [inhibitor, single point]",
O=C(NCC1CCN(c2ccc(S(=O)(=O)N3CCOCC3)cc2)CC1)c1cccc(Cl)c1,inactive,
O=C(Nc1ccc(O)c(-c2nc3ccccc3o2)c1)C1(c2ccccc2)CCCC1,"inconclusive: 63.1 µM [inhibitor, partial curve]",
CCc1cc(CNC(=O)c2ccc(OC3CCN(CCc4ccccc4)CC3)cc2)on1,active: 14.1 µM,
CCCn1c(SCC(=O)NC(=O)NCc2ccco2)n[nH]c1=O,active: 44.7 µM,
CCOc1ccccc1N1C(=O)c2ccccc2N/C1=C\N1CCN(C(=O)c2ccco2)CC1,inactive,
CCCN1c2cccc3cccc(c23)S1(=O)=O,"inconclusive: 31.6 µM [inhibitor, partial curve]",
Fc1ccc(C2C3=C(Nc4ncnn42)c2ccccc2OC3c2ccncc2)cc1 (stereo not given),inactive,
COCCOC(=O)c1c(C)n(C)c2ccc(OC(=O)C3CC3)cc12,inactive,
CCc1ccc(NC(=O)C2=CC(c3cccs3)=NS(=O)(=O)N2C)cc1,inactive,
Cn1c(/C=N/NC(=O)c2ccccc2)nc2ccccc21,"inconclusive: 56.2 µM [inhibitor, partial curve]",
CCc1ccc(/C=C2/SC(=S)N(CCC(=O)Nc3ccc(C(=O)O)cc3)C2=O)cc1,"inconclusive: 3.98 µM [inhibitor, single point]",
CCN(CC)C(=S)Nc1ccc(Cl)c(Cl)c1,inactive,
CCOC(=O)c1cc(-c2ccc(OC)cc2)nn1-c1ccccc1C(=O)O,active: 7.94 µM,
Cn1c(=O)[nH]c(=O)c2c1nc(SCCO)n2Cc1ccccc1Cl,inactive,
COc1ccc2c(c1OC)C(C1c3c(cc4c(c3OC)OCO4)CCN1C)OC2=O (stereo not given),"inconclusive: 89.1 µM [inhibitor, single point]",
C#CCCCO/N=C1/C[C@@H](O)[C@@H](O)[C@@H]2[C@H]3C(=O)N(c4ccc(F)cc4F)C(=O)[C@@H]3CC[C@@H]12,,inactive: 10.1% [at 21 µM]
